Measurements from the supplement of paper PMC4967469.

Legend:
Assay in all cases: Viability of human cancer cell lines after 72 h of drug (GDSC screen)
PI-103 = compound: Oc1cccc(-c2nc(N3CCOCC3)c3oc4ncccc4c3n2)c1 [PI-103]; details: top dose 10.24 µM
Description: (§1)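 Human cancer cell lines in 384-well plates, medium with 10% serum, drug for 72 h over a 256-fold dose range (nine 2-fold or five 4-fold steps up to the top dose). Adherent lines were fixed and stained with the nucleic acid dye Syto60, suspension lines read with resazurin; signal relative to control wells, capped at 0 and 100%. One two-parameter sigmoid per drug and line, fitted in a mixed model over all curves with the slope shared within a line.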

BX-795 = compound: O=C(NCCCNc1nc(Nc2cccc(NC(=O)N3CCCC3)c2)ncc1I)c1cccs1 [BX-795]; details: top dose 5 µM; top dose inferred
Description: as §1

GSK690693 = compound: CCn1c(-c2nonc2N)nc2c(C#CC(C)(C)O)ncc(OC[C@H]3CCCNC3)c21 [GSK690693]; details: top dose 10.24 µM; top dose inferred
Description: as §1

SB-505124 = compound: Cc1cccc(-c2[nH]c(C(C)(C)C)nc2-c2ccc3c(c2)OCO3)n1 [SB-505124]; details: top dose 10 µM; top dose inferred
Description: as §1

UNC0638 = compound: COc1cc2c(NC3CCN(C(C)C)CC3)nc(C3CCCCC3)nc2cc1OCCCN1CCCC1 [UNC0638]
Description: as §1

Tretinoin = compound: CC1=C(/C=C/C(C)=C/C=C/C(C)=C/C(=O)O)C(C)(C)CCC1 [Tretinoin]; details: top dose 10 µM; top dose inferred
Description: as §1

[1] = top dose 20 µM, screen: GDSC drug entry 1236, top dose inferred
[2] = top dose 40 µM, screen: GDSC drug entry 245

Cell Line	AUC (PI-103)	IC50 (PI-103)	AUC (BX-795)	IC50 (BX-795)	AUC (GSK690693)	IC50 (GSK690693)	AUC (SB-505124)	IC50 (SB-505124)	AUC (UNC0638; [1])	IC50 (UNC0638; [1])	AUC (UNC0638; [2])	IC50 (UNC0638; [2])	AUC (Tretinoin)	IC50 (Tretinoin)
CAL-39 (cervix, adherent)	0.881	> 10.2 µM	0.87	4.97 µM	0.985	> 10.2 µM	0.948	> 10 µM	0.874	> 20 µM	0.822	24.5 µM	0.975	> 10 µM
CAL-51 (breast, adherent)	0.849	6.16 µM	0.736	1.32 µM	0.949	> 10.2 µM	0.947	> 10 µM	0.99	> 20 µM	0.985	> 40 µM	0.944	> 10 µM
CAL-62 (thyroid, adherent)	0.659	1.72 µM	0.828	2.89 µM	0.987	> 10.2 µM	0.981	> 10 µM	0.892	> 20 µM	0.97	> 40 µM	0.95	> 10 µM
CAL-72 (osteosarcoma, adherent)	0.984	> 10.2 µM	0.858	> 5 µM	0.981	> 10.2 µM	0.957	> 10 µM	0.831	15.9 µM	0.984	> 40 µM	0.904	> 10 µM
CAL-78 (chondrosarcoma, adherent)	0.984	> 10.2 µM	0.851	4.74 µM	0.986	> 10.2 µM	0.98	> 10 µM	0.799	11.3 µM	0.856	39.8 µM	0.986	> 10 µM
CAL-85-1 (breast, adherent)	0.556	0.947 µM	0.866	> 5 µM	0.895	> 10.2 µM	0.979	> 10 µM	0.979	> 20 µM	0.828	34.7 µM	0.961	> 10 µM
CAL-120 (breast, adherent)	0.45	0.45 µM	0.84	5 µM	0.96	> 10.2 µM	0.973	> 10 µM	0.965	> 20 µM	0.825	33.8 µM	0.963	> 10 µM
CAPAN-1 (pancreas, adherent)	0.98	> 10.2 µM	0.981	> 5 µM	0.964	> 10.2 µM	0.985	> 10 µM	0.985	> 20 µM	0.876	> 40 µM	0.984	> 10 µM
CCF-STTG1 (glioma, adherent)	0.333	0.219 µM	0.859	4.21 µM	0.87	9.62 µM	0.987	> 10 µM	0.847	14.9 µM	0.877	> 40 µM	0.971	> 10 µM

By IC50 is meant the dose at which the fit gives 50% viability; fits outside the tested doses are given as limits. AUC sums up the same curve from the lowest dose to the 256-fold higher top dose; it is 1 without any effect and falls as sensitivity rises. For part of these data: An inferred top dose comes from the curve model; the source does not state it. For part of these data: An entry number marks a drug with two screens in the source, which often give different values.
